# Assay results from the supplement of paper PMC8728848.
# Some of the results follow.
# Columns and labels:
# Experiment in all cases: glycan array binding signal (z-score within array); higher = stronger binding
# Settings in all cases: glycan notation: IUPAC condensed, linker removed
# [1] = biological target: Fuc(a1-2)[GalNAc(a1-3)]Gal(b1-3)GlcNAc(b1-6)GalNAc
# How it was run: (§1)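 The Consortium for Functional Glycomics database supplied 3228 glycan arrays, of which those lacking an available protein sequence were dropped. The binding signal, a within-array Z-score, was averaged across arrays of the same protein sequence and across linkers. Negative scores can be read as non-binding.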
# [2] = biological target: Fuc(a1-2)[GalNAc(a1-3)]Gal(b1-4)Glc
# How it was run: as §1
# [3] = biological target: Fuc(a1-2)[GalNAc(a1-3)]Gal(b1-4)GlcNAc
# How it was run: as §1
# [4] = biological target: Fuc(a1-2)[GalNAc(a1-3)]Gal(b1-4)GlcNAc(b1-2)Man
# How it was run: as §1
# [5] = biological target: Fuc(a1-2)[GalNAc(a1-3)]Gal(b1-4)GlcNAc(b1-2)Man(a1-3)[Fuc(a1-2)[GalNAc(a1-3)]Gal(b1-4)GlcNAc(b1-2)Man(a1-6)]Man(b1-4)GlcNAc(b1-4)GlcNAc
# How it was run: as §1
# [6] = biological target: Fuc(a1-2)[GalNAc(a1-3)]Gal(b1-4)GlcNAc(b1-2)Man(a1-3)[Fuc(a1-2)[GalNAc(a1-3)]Gal(b1-4)GlcNAc(b1-2)Man(a1-6)]Man(b1-4)GlcNAc(b1-4)[Fuc(a1-6)]GlcNAc
# How it was run: as §1
# [7] = biological target: Fuc(a1-2)[GalNAc(a1-3)]Gal(b1-4)GlcNAc(b1-3)Gal(b1-4)GlcNAc
# How it was run: as §1
# [8] = biological target: Fuc(a1-2)[GalNAc(a1-3)]Gal(b1-4)GlcNAc(b1-3)Gal(b1-4)GlcNAc(b1-3)Gal(b1-4)GlcNAc
# How it was run: as §1
# [9] = biological target: Fuc(a1-2)[GalNAc(a1-3)]Gal(b1-4)GlcNAc(b1-3)GalNAc
# How it was run: as §1
# [10] = biological target: Fuc(a1-2)[GalNAc(a1-3)]Gal(b1-4)GlcNAc(b1-3)[Fuc(a1-2)[GalNAc(a1-3)]Gal(b1-4)GlcNAc(b1-6)]GalNAc
# How it was run: as §1
# [11] = biological target: Fuc(a1-2)[GalNAc(a1-3)]Gal(b1-4)GlcNAc(b1-6)GalNAc
# How it was run: as §1
# [12] = biological target: Fuc(a1-2)[GalNAc(a1-3)]Gal(b1-4)[Fuc(a1-3)]GlcNAc
# How it was run: as §1
# [13] = biological target: Fuc(a1-2)[GalNAc(a1-3)]Gal(b1-4)[Fuc(a1-3)]GlcNAc(b1-3)GalNAc
# How it was run: as §1
# [14] = biological target: Fuc(a1-2)[GalNAc(a1-4)]Gal(b1-4)GlcNAc
# How it was run: as §1
# [15] = biological target: Fuc(a1-2)[GalNAc(b1-3)]Gal
# How it was run: as §1
# [16] = biological target: Fuc(a1-3)GlcNAc
# How it was run: as §1
# [17] = biological target: Fuc(a1-3)[Gal(b1-4)]Glc6S
# How it was run: as §1
# [18] = biological target: Fuc(a1-3)[Gal(b1-4)]GlcNAc
# How it was run: as §1
# [19] = biological target: Fuc(a1-3)[Gal(b1-4)]GlcNAc(b1-2)Man
# How it was run: as §1
# [20] = biological target: Fuc(a1-3)[Gal(b1-4)]GlcNAc(b1-2)Man(a1-3)[Fuc(a1-3)[Gal(b1-4)]GlcNAc(b1-2)Man(a1-6)]Man(b1-4)GlcNAc(b1-4)GlcNAc
# How it was run: as §1
# [21] = biological target: Fuc(a1-3)[Gal(b1-4)]GlcNAc(b1-2)Man(a1-3)[Fuc(a1-3)[Gal(b1-4)]GlcNAc(b1-2)Man(a1-6)]Man(b1-4)GlcNAc(b1-4)[Fuc(a1-6)]GlcNAc
# How it was run: as §1
# [22] = biological target: Fuc(a1-3)[Gal(b1-4)]GlcNAc(b1-3)Gal(b1-3)[Fuc(a1-4)]GlcNAc
# How it was run: as §1
# [23] = biological target: Fuc(a1-3)[Gal(b1-4)]GlcNAc(b1-3)Gal(b1-4)[Fuc(a1-3)]GlcNAc
# How it was run: as §1
# [24] = biological target: Fuc(a1-3)[Gal(b1-4)]GlcNAc(b1-3)Gal(b1-4)[Fuc(a1-3)]GlcNAc(b1-3)Gal(b1-4)[Fuc(a1-3)]GlcNAc
# How it was run: as §1
# [25] = biological target: Fuc(a1-3)[Gal(b1-4)]GlcNAc(b1-3)GalNAc
# How it was run: as §1
# [26] = biological target: Fuc(a1-3)[Gal(b1-4)]GlcNAc(b1-6)GalNAc
# How it was run: as §1
# [27] = biological target: Fuc(a1-3)[Gal(b1-4)]GlcNAc(b1-6)[Gal(b1-3)GlcNAc(b1-3)]Gal(b1-4)Glc
# How it was run: as §1
# [28] = biological target: Fuc(a1-3)[Gal(b1-4)]GlcNAc6S
# How it was run: as §1
# [29] = biological target: Fuc(a1-3)[Gal3S(b1-4)]Glc
# How it was run: as §1
# [30] = biological target: Fuc(a1-3)[Gal3S(b1-4)]GlcNAc
# How it was run: as §1
# [31] = biological target: Fuc(a1-3)[Gal3S(b1-4)]GlcNAc6S
# How it was run: as §1
# [32] = biological target: Fuc(a1-3)[GalNAc(b1-4)]GlcNAc
# How it was run: as §1
# [33] = biological target: Fuc(a1-3)[GalNAc(b1-4)]GlcNAc6S
# How it was run: as §1
# [34] = biological target: Fuc(a1-4)GlcNAc
# How it was run: as §1
# [35] = biological target: Fuc(b1-3)GlcNAc
# How it was run: as §1
# [36] = biological target: Gal(a1-2)Gal
# How it was run: as §1
# [37] = biological target: Gal(a1-3)Gal
# How it was run: as §1
binder,measurement,setting,value
PLU (Photorhabdus luminiscence) (protein) HHHHHHENLYFQSSIVFASIDPRSNPLQTSSQNYVDIPGLKLDVSKYSNSPCLTALITLNIPTPYASGNNFPGGNFAIVTDQGEQLAYGGFTYSSKIPENSGRMPFTLVARYSLASNVSTIKAQWSNIRGSTVHIDSYASISAVIQCNQLV,glycan array binding signal (z-score),[1],-0.294
same,glycan array binding signal (z-score),[2],2.77
same,glycan array binding signal (z-score),[3],2.73
same,glycan array binding signal (z-score),[4],3.66
same,glycan array binding signal (z-score),[5],0.292
same,glycan array binding signal (z-score),[6],-0.244
same,glycan array binding signal (z-score),[7],11.7
same,glycan array binding signal (z-score),[8],2.73
same,glycan array binding signal (z-score),[9],-0.364
same,glycan array binding signal (z-score),[10],2.28
same,glycan array binding signal (z-score),[11],2.34
same,glycan array binding signal (z-score),[12],3.42
same,glycan array binding signal (z-score),[13],-0.031
same,glycan array binding signal (z-score),[14],2.34
same,glycan array binding signal (z-score),[15],-0.231
same,glycan array binding signal (z-score),[16],1.49
same,glycan array binding signal (z-score),[17],-0.162
same,glycan array binding signal (z-score),[18],-0.289
same,glycan array binding signal (z-score),[19],-0.353
same,glycan array binding signal (z-score),[20],-0.28
same,glycan array binding signal (z-score),[21],-0.256
same,glycan array binding signal (z-score),[22],-0.214
same,glycan array binding signal (z-score),[23],-0.264
same,glycan array binding signal (z-score),[24],-0.134
same,glycan array binding signal (z-score),[25],-0.246
same,glycan array binding signal (z-score),[26],-0.177
same,glycan array binding signal (z-score),[27],-0.306
same,glycan array binding signal (z-score),[28],-0.364
same,glycan array binding signal (z-score),[29],-0.27
same,glycan array binding signal (z-score),[30],-0.291
same,glycan array binding signal (z-score),[31],-0.291
same,glycan array binding signal (z-score),[32],-0.102
same,glycan array binding signal (z-score),[33],-0.294
same,glycan array binding signal (z-score),[34],0.546
same,glycan array binding signal (z-score),[35],-0.329
same,glycan array binding signal (z-score),[36],-0.305
same,glycan array binding signal (z-score),[37],-0.214
